Reference: PMC9911399, “Two distinct binding modes provide the RNA-binding protein RbFox with extraordinary sequence specificity”
Residue numbers refer to the chain shown, from its start. This is one part of the list.

T1: RBFOX1 RRM (Homo sapiens, UniProt Q9NWB1 109-208)
T1 sequence: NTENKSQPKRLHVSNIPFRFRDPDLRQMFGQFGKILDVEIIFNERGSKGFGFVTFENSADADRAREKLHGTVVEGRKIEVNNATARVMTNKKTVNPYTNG

B1: AUAAAGG (DNA:RNA)
RNA: GGGAGACCGGAAUUCAGAUUGUCCAUAAAGGUUAAAUCCCGUCGUAGCCACCA
DNA 1: CAATCTGAATTCCGGTCTCCC
DNA 2: TGGTGGCTACGACGGGATT
B2: GGUUUGC (DNA:RNA)
RNA: B1 RNA with A25G, U26G, A27U, A28U, A29U, G31C
DNA 1: CAATCTGAATTCCGGTCTCCC
DNA 2: TGGTGGCTACGACGGGATT
B3: CUGCGCU (DNA:RNA)
RNA: B1 RNA with A25C, A27G, A28C, A29G, G30C, G31U
DNA 1: CAATCTGAATTCCGGTCTCCC
DNA 2: TGGTGGCTACGACGGGATT
B4: UGGCGAU (DNA:RNA)
RNA: GGGAGACCGGAAUUCAGAUUGUCCUGGCGAUUUAAAUCCCGUCGUAGCCACCA
DNA 1: CAATCTGAATTCCGGTCTCCC
DNA 2: TGGTGGCTACGACGGGATT
B5: GUUUGGG (DNA:RNA)
RNA: B1 RNA with A25G, A27U, A28U, A29G
DNA 1: CAATCTGAATTCCGGTCTCCC
DNA 2: TGGTGGCTACGACGGGATT
B6: AAGGACU (DNA:RNA)
RNA: B1 RNA with U26A, A27G, A28G, G30C, G31U
DNA 1: CAATCTGAATTCCGGTCTCCC
DNA 2: TGGTGGCTACGACGGGATT
B7: GUACAGU (DNA:RNA)
RNA: B1 RNA with A25G, A28C, G31U
DNA 1: CAATCTGAATTCCGGTCTCCC
DNA 2: TGGTGGCTACGACGGGATT
B8: CCAGACU (DNA:RNA)
RNA: B1 RNA with A25C, U26C, A28G, G30C, G31U
DNA 1: CAATCTGAATTCCGGTCTCCC
DNA 2: TGGTGGCTACGACGGGATT
B9: UCCGUUA (DNA:RNA)
RNA: B4 RNA with G26C, G27C, C28G, G29U, A30U, U31A
DNA 1: CAATCTGAATTCCGGTCTCCC
DNA 2: TGGTGGCTACGACGGGATT
B10: UGAGUGC (DNA:RNA)
RNA: B1 RNA with A25U, U26G, A28G, A29U, G31C
DNA 1: CAATCTGAATTCCGGTCTCCC
DNA 2: TGGTGGCTACGACGGGATT
B11: AAUAACG (DNA:RNA)
RNA: B1 RNA with U26A, A27U, G30C
DNA 1: CAATCTGAATTCCGGTCTCCC
DNA 2: TGGTGGCTACGACGGGATT
B12: GCCCCCC (DNA:RNA)
RNA: B4 RNA with U25G, G26C, G27C, G29C, A30C, U31C
DNA 1: CAATCTGAATTCCGGTCTCCC
DNA 2: TGGTGGCTACGACGGGATT
B13: GGCUUUA (DNA:RNA)
RNA: B4 RNA with U25G, G27C, C28U, G29U, A30U, U31A
DNA 1: CAATCTGAATTCCGGTCTCCC
DNA 2: TGGTGGCTACGACGGGATT
B14: AAAGUAG (DNA:RNA)
RNA: B1 RNA with U26A, A28G, A29U, G30A
DNA 1: CAATCTGAATTCCGGTCTCCC
DNA 2: TGGTGGCTACGACGGGATT
B15: AGAUUGA (DNA:RNA)
RNA: B1 RNA with U26G, A28U, A29U, G31A
DNA 1: CAATCTGAATTCCGGTCTCCC
DNA 2: TGGTGGCTACGACGGGATT
B16: GAGGAAG (DNA:RNA)
RNA: B1 RNA with A25G, U26A, A27G, A28G, G30A
DNA 1: CAATCTGAATTCCGGTCTCCC
DNA 2: TGGTGGCTACGACGGGATT
B17: GCAAGCU (DNA:RNA)
RNA: B1 RNA with A25G, U26C, A29G, G30C, G31U
DNA 1: CAATCTGAATTCCGGTCTCCC
DNA 2: TGGTGGCTACGACGGGATT
B18: UGAUCUG (DNA:RNA)
RNA: B1 RNA with A25U, U26G, A28U, A29C, G30U
DNA 1: CAATCTGAATTCCGGTCTCCC
DNA 2: TGGTGGCTACGACGGGATT
B19: GCAUAGG (DNA:RNA)
RNA: B1 RNA with A25G, U26C, A28U
DNA 1: CAATCTGAATTCCGGTCTCCC
DNA 2: TGGTGGCTACGACGGGATT
B20: UUAUAAA (DNA:RNA)
RNA: B1 RNA with A25U, A28U, G30A, G31A
DNA 1: CAATCTGAATTCCGGTCTCCC
DNA 2: TGGTGGCTACGACGGGATT
B21: CCUGCGU (DNA:RNA)
RNA: B1 RNA with A25C, U26C, A27U, A28G, A29C, G31U
DNA 1: CAATCTGAATTCCGGTCTCCC
DNA 2: TGGTGGCTACGACGGGATT
B22: AUCAGGU (DNA:RNA)
RNA: B1 RNA with A27C, A29G, G31U
DNA 1: CAATCTGAATTCCGGTCTCCC
DNA 2: TGGTGGCTACGACGGGATT
B23: AAAAUUA (DNA:RNA)
RNA: B1 RNA with U26A, A29U, G30U, G31A
DNA 1: CAATCTGAATTCCGGTCTCCC
DNA 2: TGGTGGCTACGACGGGATT
B24: UCAUACU (DNA:RNA)
RNA: B1 RNA with A25U, U26C, A28U, G30C, G31U
DNA 1: CAATCTGAATTCCGGTCTCCC
DNA 2: TGGTGGCTACGACGGGATT
B25: UCUGCUG (DNA:RNA)
RNA: B1 RNA with A25U, U26C, A27U, A28G, A29C, G30U
DNA 1: CAATCTGAATTCCGGTCTCCC
DNA 2: TGGTGGCTACGACGGGATT
B26: GCAUUCU (DNA:RNA)
RNA: B1 RNA with A25G, U26C, A28U, A29U, G30C, G31U
DNA 1: CAATCTGAATTCCGGTCTCCC
DNA 2: TGGTGGCTACGACGGGATT
B27: UCUUGAA (DNA:RNA)
RNA: B4 RNA with G26C, G27U, C28U, U31A
DNA 1: CAATCTGAATTCCGGTCTCCC
DNA 2: TGGTGGCTACGACGGGATT
B28: UGAUCAA (DNA:RNA)
RNA: B4 RNA with G27A, C28U, G29C, U31A
DNA 1: CAATCTGAATTCCGGTCTCCC
DNA 2: TGGTGGCTACGACGGGATT
B29: CAGACAC (DNA:RNA)
RNA: B4 RNA with U25C, G26A, C28A, G29C, U31C
DNA 1: CAATCTGAATTCCGGTCTCCC
DNA 2: TGGTGGCTACGACGGGATT
B30: UAUCUCU (DNA:RNA)
RNA: B4 RNA with G26A, G27U, G29U, A30C
DNA 1: CAATCTGAATTCCGGTCTCCC
DNA 2: TGGTGGCTACGACGGGATT
B31: ACUCUAU (DNA:RNA)
RNA: B4 RNA with U25A, G26C, G27U, G29U
DNA 1: CAATCTGAATTCCGGTCTCCC
DNA 2: TGGTGGCTACGACGGGATT

Molecular target: T1, RBFOX1 RRM
Experiment: EMSA; HiTS-Eq, 1 nM pool, 10 min; buffer printed only for the single-RNA assays: 10 mM Tris pH 7.5, 150 mM NaCl, 3.4 mM EDTA, 0.001% NP-40, 30 C
Details: tags: His6 N-terminal (pET28a); label: 5' 32P
How it was run: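 Purified wild-type or mutant RbFox RRM at increasing concentrations was equilibrated with 1 nM of 5′-radiolabelled RNA carrying 7 randomized nucleotides for 10 min in 50 µL. Unbound RNA was separated by 8% native PAGE and sequenced. Relative association constants came from read-count changes of each RNA species compared with the control reaction, normalised to the cognate motif.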

Binder	binding signal
B1	0.00589 KA relative to UGCAUGU
B2	0.0289 KA relative to UGCAUGU
B3	0.015 KA relative to UGCAUGU
B4	0.0166 KA relative to UGCAUGU
B5	0.0128 KA relative to UGCAUGU
B6	0.00367 KA relative to UGCAUGU
B7	0.0103 KA relative to UGCAUGU
B8	0.00858 KA relative to UGCAUGU
B9	0.00479 KA relative to UGCAUGU
B10	0.0254 KA relative to UGCAUGU
B11	0.00173 KA relative to UGCAUGU
B12	0.00549 KA relative to UGCAUGU
B13	0.0161 KA relative to UGCAUGU
B14	0.00465 KA relative to UGCAUGU
B15	0.0124 KA relative to UGCAUGU
B16	0.0138 KA relative to UGCAUGU

Binder	binding signal
B17	0.011 KA relative to UGCAUGU
B18	0.0254 KA relative to UGCAUGU
B19	0.0105 KA relative to UGCAUGU
B20	0.00877 KA relative to UGCAUGU
B21	0.011 KA relative to UGCAUGU
B22	0.00694 KA relative to UGCAUGU
B23	0.000224 KA relative to UGCAUGU
B24	0.000544 KA relative to UGCAUGU
B25	0.023 KA relative to UGCAUGU
B26	0.0117 KA relative to UGCAUGU
B27	0.0145 KA relative to UGCAUGU
B28	0.0102 KA relative to UGCAUGU
B29	0.00346 KA relative to UGCAUGU
B30	0.00431 KA relative to UGCAUGU
B31	0.00106 KA relative to UGCAUGU
